Test results: patent US20100137158A1 (WISCONSIN ALUMNI RESEARCH FOUNDATION, published 2010)

B1: 1.3 GFAb (designed binder)
chain: MSKGEELFTGVVPILVELNGDVNGHKFSVSGEGEGDATHGKLTLKFICTTGKLPVPWPTLVTTLGYGVQCFARYPDHMKQHDFFKSTMPEGYVQERTIFFKDLKAISRSFFSTTSDGTYKTRAEVKFEGGTLVNRIELKGIDFKEDGNILGHKLEYNYNSHNVYIMADKQKNGIKANFKIRHNIKSRIRNLKYTNTRDGSVQLADHYQQNTPIGDGPVLLPDNHYLSTQSKLSKDPNEKRDHMVLVEFVTAAGITHGMDELYK
notes: Scaffold 20-5-8
B2: G6 GFAb (designed binder)
chain: MSKGEELFTGVVPILVELNGDVNGHKFSVSGEGEGDATHGKLTLKFICTTGKLPVPWPTLVTTLGYGVQCFARYPDHMKQHDFFKSTMPEGYVQERTIFFKDLKRVSRFLLTTTSDGTYKTRAEVKFEGGTLVNRIELKGIDFKEDGNILGHKLEYNYNSHNVYIMADKQKNGIKANFKIRHNIKSRKSRIISSQTRDGSVQLADHYQQNTPIGDGPVLLPDNHYLSTQSKLSKDPNEKRDHMVLVEFVTAAGITHGMDELYK
notes: Scaffold 20-5-8
B3: G8 GFAb (designed binder)
chain: MSKGEELFTGVVPILVELNGDVNGHKFSVSGEGEGDATHGKLTLKFICTTGKLPVPWPTLVTTLGYGVQCFARYPDHMKQHDFFKSTMPEGYVQERTIFFKDLKSHCLFRKCYTSDGTYKTRAEVKFEGGTLVNRIELKGIDFKEDGNILGHKLEYNYNSHNVYIMADKQKNGIKANFKIRHNIKSRARSIRMKVTRDGSVQLADHYQQNTPIGDGPVLLPDNHYLSTQSKLSKDPNEKRDHMVLVEFVTAAGITHGMDELYK
notes: Scaffold 20-5-8
B4: G7 GFAb (designed binder)
chain: MSKGEELFTGVVPILVELNGDVNGHKFSVSGEGEGDATHGKLTLKFICTTGKLPVPWPTLVTTLGYGVQCFARYPDHMKQHDFFKSTMPEGYVQERTIFFKDLKNVIYPFLYATSDGTYKTRAEVKFEGGTLVNRIELKGIDFKEDGNILGHKLEYNYNSHNVYIMADKQKNGIKANFKIRHNIKSRRVTKTKHKTRDGSVQLADHYQQNTPIGDGPVLLPDNHYLSTQSKLSKDPNEKRDHMVLVEFVTAAGITHGMDELYK
notes: Scaffold 20-5-8
B5: G4 GFAb (designed binder)
chain: MSKGEELFTGVVPILVELNGDVNGHKFSVSGEGEGDATHGKLTLKFICTTGKLPVPWPTLVTTLGYGVQCFARYPDHMKQHDFFKSTMPEGYVQERTIFFKDLKRGVSKSFLLTSDGTYKTRAEVKFEGGTLVNRIELKGIDFKEDGNILGHKLEYNYNSHNVYIMADKQKNGIKANFKIRHNIKSRQGITKGYKTRDGSVQLADHYQQNTPIGDGPVLLPDNHYLSTQSKLSKDPNEKRDHMVLVEFVTAAGITHGMDELYK
notes: Scaffold 20-5-8

Legend:
streptavidin = target: T1, streptavidin (UniProt P22629 part only, limits assumed); test: yeast surface display
T1 construct: On polystyrene beads (Spherotech) in the assays with soluble 1.3 GFAb; also called streptavidin alone; streptavidin-coated polystyrene beads

[1] = target: streptavidin-phycoerythrin conjugate (UniProt P22629 part only); test: yeast surface display titration, flow cytometry; triplicate titrations, KD ± SD
[2] = target: T2, glyceraldehyde-3-phosphate dehydrogenase (GAPDH) from human erythrocytes (human, UniProt P04406 2-335, biotinylated using Sulfo-NHS-LC-biotin (for the titrations); unmodified in the check of paragraph 109 and in HEK-293 cells); test: yeast surface display titration, flow cytometry; triplicate; estimate from low concentration data (hook effect above 100 nM GAPDH)
T2 construct: The same entry is used for the endogenous GAPDH stained in fixed HEK-293 cells

[3] = target: T2, glyceraldehyde-3-phosphate …; test: yeast surface display titration, flow cytometry

T2 sequence (P04406 2-335 limits assumed): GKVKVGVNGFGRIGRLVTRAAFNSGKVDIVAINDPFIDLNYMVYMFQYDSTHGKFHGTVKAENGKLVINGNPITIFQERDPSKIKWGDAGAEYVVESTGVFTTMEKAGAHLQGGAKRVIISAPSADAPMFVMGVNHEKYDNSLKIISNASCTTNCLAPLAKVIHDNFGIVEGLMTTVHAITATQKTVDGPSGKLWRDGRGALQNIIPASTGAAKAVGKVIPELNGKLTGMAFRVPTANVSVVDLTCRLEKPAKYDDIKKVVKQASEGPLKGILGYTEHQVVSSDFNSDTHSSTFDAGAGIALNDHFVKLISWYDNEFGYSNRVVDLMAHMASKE
Chain of streptavidin (P22629 37-163 limits assumed): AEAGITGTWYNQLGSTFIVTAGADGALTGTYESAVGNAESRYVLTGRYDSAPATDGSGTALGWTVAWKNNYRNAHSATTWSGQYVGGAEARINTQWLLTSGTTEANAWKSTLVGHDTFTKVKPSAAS

Row | Binder | Kd [3] [nM] | also measured
1 | B1 |  | binding result (streptavidin): binds; Kd [1]: 70 nM
2 | B2 |  | Kd [2]: 18 nM
3 | B3 | > 500 | 
4 | B4 | > 500 | 
5 | B5 | > 500 | 
